# Assay results as given in article PMC4336329 (PLoS ONE, 2015).
# The campaign covered roughly 310,000 compounds. About 2,200 (0.71%) showed an effect of 50% or more. The effect is printed as a negative number. The list shows a part of the results.
# Target: human ether-à-go-go-related gene (hERG) potassium channel (human, UniProt Q12809)
# Experiment: primary screen, population patch clamp on CHO cells stably expressing hERG
# Sequence of human ether-à-go-go-related gene (hERG) potassium channel (Q12809 whole entry, looked up): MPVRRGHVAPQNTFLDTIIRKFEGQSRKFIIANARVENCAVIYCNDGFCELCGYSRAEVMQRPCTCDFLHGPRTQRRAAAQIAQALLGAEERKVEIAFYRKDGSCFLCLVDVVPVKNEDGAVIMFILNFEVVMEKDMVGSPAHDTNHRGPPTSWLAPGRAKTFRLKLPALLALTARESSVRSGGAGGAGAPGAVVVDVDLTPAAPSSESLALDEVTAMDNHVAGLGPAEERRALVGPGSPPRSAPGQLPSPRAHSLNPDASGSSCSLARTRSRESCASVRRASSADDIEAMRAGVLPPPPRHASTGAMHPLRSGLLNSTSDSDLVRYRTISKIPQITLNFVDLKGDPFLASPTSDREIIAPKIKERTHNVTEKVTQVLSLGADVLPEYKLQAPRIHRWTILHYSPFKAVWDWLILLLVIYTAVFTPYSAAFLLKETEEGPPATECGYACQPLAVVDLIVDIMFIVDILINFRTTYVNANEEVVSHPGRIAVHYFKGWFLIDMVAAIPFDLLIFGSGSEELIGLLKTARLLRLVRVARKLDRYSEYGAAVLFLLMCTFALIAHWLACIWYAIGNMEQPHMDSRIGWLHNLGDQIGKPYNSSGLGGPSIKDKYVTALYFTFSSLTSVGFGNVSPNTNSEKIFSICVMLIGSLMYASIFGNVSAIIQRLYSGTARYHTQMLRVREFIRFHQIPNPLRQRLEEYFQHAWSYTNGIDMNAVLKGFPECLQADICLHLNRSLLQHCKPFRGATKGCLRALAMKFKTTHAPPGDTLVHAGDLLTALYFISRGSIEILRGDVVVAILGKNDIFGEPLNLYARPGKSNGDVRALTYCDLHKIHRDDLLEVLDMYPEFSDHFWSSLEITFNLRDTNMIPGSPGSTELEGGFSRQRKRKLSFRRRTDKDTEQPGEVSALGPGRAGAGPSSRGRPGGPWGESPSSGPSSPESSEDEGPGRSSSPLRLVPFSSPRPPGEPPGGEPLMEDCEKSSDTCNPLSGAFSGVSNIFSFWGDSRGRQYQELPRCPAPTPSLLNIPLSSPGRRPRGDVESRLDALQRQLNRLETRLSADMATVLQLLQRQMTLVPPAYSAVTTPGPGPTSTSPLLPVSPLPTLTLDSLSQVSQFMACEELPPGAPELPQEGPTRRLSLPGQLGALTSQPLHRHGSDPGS
row,SMILES,"hERG current change (%, negative = inhibition) at 1uM"
1,COCCn1c(SCC(=O)OC(C)C)nnc1-c1ccccc1,-3%
2,Cc1nn(-c2ccccc2)c2nc(-c3cccs3)cc(C(=O)NN)c12,-0.0302%
3,O=C(COc1cccnc1[N+](=O)[O-])Nc1ccc2c(c1)OCO2,8.89%
4,COc1ccccc1-c1cc(C(=O)Nc2cc(C)on2)no1,1.49%
5,C[C@@H]1CCC(=O)N(CC[C@H](Oc2ccccc2)c2ccccc2)CC1,2.95%
6,COc1ccc(/C=N/Nc2nc(-c3ccc(Cl)cc3)cc(C(F)(F)F)n2)c(OC)c1,7.97%
7,COc1ccc(CCNC(=O)C2CCCN(Cc3nc(-c4cccc(Cl)c4)oc3C)C2)cc1OC (stereo not drawn),-76.7%
8,Cc1oc2c(c1C(=O)N1CCC(C)CC1)C(=O)c1ccccc1C2=O,7.14%
9,O=C(NNC(=O)c1cc(-c2ccccc2)nc2ccccc12)Nc1cccc(Cl)c1,-0.813%
10,O=C(CNC(=O)c1ccc2c(c1)S(=O)(=O)N=C1CCCCCN12)Nc1ccc(F)c(F)c1,2.67%
11,CCOC(=O)c1ccc(N2C(=O)C(CC(N)=O)N(NC(=O)c3cccc(F)c3)C2=S)cc1 (stereo not drawn),16.5%
12,O=C(N/N=C/c1c(O)n(C2CC2)c(=S)[nH]c1=O)c1ccccc1Cl,14.3%
13,CC1CCN(C(=O)Cn2c3ccccc3c3nc4n(c(=O)c32)CCS4)CC1,13.9%
14,O=C1CN(C(=O)COC(=O)c2ccccc2Br)c2ccccc2N1,-1.52%
15,CC(C)NC(=O)Cn1cc(C(=O)C2CC2)c2ccccc21,16.3%
16,COCCNC(=O)c1onc(CSc2cc(C)cc(C)c2)c1C(=O)O,8.66%
17,CS(=O)(=O)N1N=C(c2ccco2)CC1c1ccc(Cl)cc1Cl (stereo not drawn),8.78%
18,Cc1ccc(Oc2ccccc2NC(=O)CSCC(=O)Nc2cc(C)on2)cc1,5.44%
19,Cc1nnc(SCC(=O)Nc2cccc([N+](=O)[O-])c2)n1CC1CCCO1 (stereo not drawn),10.3%
20,CN(CCOCCOc1ccc(Cl)cc1Br)Cc1ccccc1,0.853%
21,COc1cccc(-c2cc(C(=O)N3CCc4ccccc4C3)no2)c1,-7.93%
22,Cc1nc2ccccc2c(=O)n1NC(=O)Cc1ccc(Br)cc1,5.31%
23,O=[N+]([O-])c1ccc(-c2ccc(S(=O)(=O)NCCN3CCCC3)cc2)cc1,-77.3%

row,SMILES,"hERG current change (%, negative = inhibition) at 1uM"
1,CN1CCN(CC#CCn2c3ccccc3c3ccccc32)CC1,-7.02%
2,CCn1ccnc1C(O)c1cccc(OC)c1 (stereo not drawn),8.76%
3,COc1ccc(C(=O)OCCN2CCN(C3=NS(=O)(=O)c4ccccc43)CC2)cc1OC,-1.52%
4,O=C(CN1C(=O)NC2(CCCC2)C1=O)Nc1cc(Cl)ccc1N1CCCC1,1.76%
5,CCOC(=O)N1CCN(C(=O)C2CCN(S(=O)(=O)N(CC)CC)CC2)CC1,4.1%
6,Cc1ccc(Nc2ccc(N3CCN(c4ccc([N+](=O)[O-])cc4)CC3)nn2)cc1,16.4%
7,CCc1ccc(OCC(=O)Nc2ccncc2)c(Br)c1,11.8%
8,CCCCN1Cc2c(nc3cc(-c4ccccc4)[nH]n3c2=O)C1=O,12.6%
9,O=C1CCCC2=C1C(O)(C(F)(F)F)C(=O)N2Cc1ccccc1 (stereo not drawn),0.0159%
10,COc1cc(/C=C/C(=O)N(Cc2ccccc2)c2ccccn2)cc(OC)c1OC,10.3%
11,CCC(NC(=O)c1cc(COc2cc(C)c(Cl)c(C)c2)on1)c1ccncc1 (stereo not drawn),7.67%
12,Cc1cccc(C(=O)NCc2nnc(SCc3ccc(F)cc3)n2C)c1,13.8%
13,Cc1cc(C)cc(OC(=O)COc2ccccc2C)c1,16.8%
14,CNC(=S)N1N=C(c2ccc(OC)cc2)CC1c1ccccc1Cl (stereo not drawn),8.31%
15,CC(=O)N1CCCC1(C(=O)O)c1ccccc1 (stereo not drawn),5.88%
16,Cc1ccc2cc(CCNC(=O)c3ccco3)c(=O)[nH]c2c1C,7.85%
17,COCc1cc(C)nc(SCc2ccc([N+](=O)[O-])cc2)c1C#N,10.6%
18,COc1ccc(/C=C2/C(=O)NC(=O)N(Cc3ccco3)C2=O)cc1,4.94%
19,CN(CC(=O)Nc1ccccc1Br)C(=O)CCCSc1nc2ccccc2[nH]1,11%
20,CC(=O)C1=C(Nc2ccccc2)CC(C)(O)C(C(C)=O)C1c1ccccc1 (stereo not drawn),10.7%
21,COc1ccc(N2CCN(C(CNC(=O)c3ccc4c(c3)OCO4)c3ccco3)CC2)cc1 (stereo not drawn),11.7%
22,Cc1ccc(OCC(=O)Nc2ccc(N(C)C)cc2)cc1,-1.4%
